Data taken from the RNAGym collection of RNA variant scans (doi:10.1073/pnas.2313332121).
Variants at the background level are over-represented here.

B1: TPR 5TU (parent)
chain: GGAUCUUCUCGAUCUAACAAAAAAGACAAAUCUGCCACAAAGCUUGAGAGCAUCUUCGGAUGCAGAGGCGGCAGCCUUCGGUGGCGCGAUAGCGCCAACGUUCUCAACUAUGACACGCAAAACGCGUGCUCCGUUGAAUGGAGUUUAUCAUG

Variants of: B1
Experiment: polymerase ribozyme fitness, log enrichment relative to wild type (log ratio); higher = more active; in vitro selection for triplet polymerase activity
Procedure, shortened: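 Mutant libraries of each subunit of a heterodimeric triplet polymerase ribozyme were built by PCR and transcribed. Each library went through one round of in vitro selection in triplicate: annealing with biotinylated primer, partner subunit and triplets, frozen incubation at −7 °C, gel excision of extended constructs, streptavidin-bead capture and RT-PCR. Input and output libraries were Illumina-sequenced; only genotypes with ≥10 input reads and ≥1 read per output were kept. Fitness is log2(genotype enrichment/wild-type enrichment), using inverse-variance-weighted replicate averages.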

Point of comparison: U7C C85U U145A, “polymerase ribozyme fitness (log ratio)” value -2.42. Against it:
- U6G U9C U13A G94C — lower, ≤ -4.2
- U7A A24U A52U C87A G126A C131U G136A A147U C149U — lower, ≤ -4.2
- U7A C10G C32A U33A G50C G83U A91G U102C — lower, ≤ -4.2
- C8A C14G G46A A49U G58U G86U A115U A121U A122U C123A — lower, ≤ -4.2
- U7G C27A C93U A107G A150U — lower, ≤ -4.2
- U7A U55A C85U C114A G136C — lower, ≤ -4.2
- U7G C76G C103A — lower, ≤ -4.2
- C8A C10A A12C C79A G83C C103A — lower, ≤ -4.2
- U7G A22C C72G U90C — lower, ≤ -4.2
- U7C U15A C18U A28C G83A G84A C114A — lower, ≤ -4.2
- U7G A21C C36U C54U C79G G83A U144A — lower, ≤ -4.2
- U7G A16U A19U G48C G50C C87A G128C U146C — lower, ≤ -4.2
- U7C U31C A39G G42C G92A G141U — lower, ≤ -4.2
- U7G C14A C35A U56A A91G A97G A115G A138G — lower, ≤ -4.2
- U6G U13G U53A G83A A97U A106U C108G — lower, ≤ -4.2
- U7A A29C A49G U55G U77C G83C G124U — lower, ≤ -4.2
- U7A C38U C75G C85U — lower, ≤ -4.2
- U7G G74A C103A — lower, ≤ -4.2
- U7C U45G G81C U130G U148C — lower, ≤ -4.2
- C8A A30U A41C A47C U55C C93U C96U — lower, ≤ -4.2
- U7A C93G C132G U139G — lower, ≤ -4.2
- U7A C54U C57A A64C C75U G92C C105U A137C — lower, ≤ -4.2
- U7C U44A C93U C99U C123U G136C G141C — lower, ≤ -4.2
- U7A A30C G48A G70C C72A A89U C96U — lower, ≤ -4.2
- U7G C57U C76U C85A C96G U104G C105G G141C — lower, ≤ -4.2
- U7G C14U A52G U56C C76A G80C C105G C108G A122G G128A — lower, ≤ -4.2
- U7C G46A G65U C76A U77G C79A G94A C96A U135A U144G G152U — lower, ≤ -4.2
- U7A A49C A66G U148A — lower, ≤ -4.2
- U6G U7A U53A C105G — lower, ≤ -4.2
- C8A A30U C87U — lower, ≤ -4.2
- C8A A28U G68U C85U G100C C123U — lower, ≤ -4.2
- U7A A26G A47G A66U G71C C131U U139G — lower, ≤ -4.2
- U7C C10U A17U G25U G50C C57U A91U C96A G117C — lower, ≤ -4.2
- U7A U31C A52C G67A C118U — lower, ≤ -4.2
- U7G U15A G59C G124C G136A — lower, -3.25
- U7G C8G A73G A120C U127C — lower, ≤ -4.2
- U7G A24G G94U G143U — lower, ≤ -4.2
- U7G A91U U104G C125A G141C U144A — lower, ≤ -4.2
- U6G U13A G84A G143A U148G — lower, ≤ -4.2
- U7A C75U G94C A122G U145A — lower, -3.63
- C8A A21C — lower, -3.76
- U7G A40G A52C G65U A73G U82A C93G U134A U148G — lower, ≤ -4.2
- U7G C75U G88U A115U A120C U134A — lower, ≤ -4.2
- U7G A19C A40G U56A A120G A150C — lower, ≤ -4.2
- U7A C14U U31A C57G U61A A89U U90C C99A A115U A122C — lower, ≤ -4.2
- U7C C18G G25C G50A U53G C95G G140U U151C — lower, ≤ -4.2
- U7C G68C G71A A106G — lower, ≤ -4.2
- U7C A37C C76G C87U G117A U148G — lower, ≤ -4.2
- C8A A40U C57U U78A A119C — lower, ≤ -4.2
- U7A C57G G59A U61G C63G G92C G100U C103G — lower, ≤ -4.2
- U7C A97G U111G — lower, ≤ -4.2
- C8A C10G G50U C51G U56G C57G G62A G86A — lower, ≤ -4.2
- U7C A37C A60U C85G — lower, ≤ -4.2
- U7G C18U A24U C35A A97U C114G U148A — lower, ≤ -4.2
- U7A C27U U55G A66C G70U A89U C95A C118A G133C — lower, ≤ -4.2
- U7A A20G A40C U61A C79G C116G U139C — lower, ≤ -4.2
- C8A A29U A40C G46A G67A G81A C85G A113C A137G — lower, ≤ -4.2
- U7G C75A C85G C95A — lower, ≤ -4.2
- U7C G50A A66G — lower, ≤ -4.2
- U7A G46A A47U G81U C85U U109C C123U U145C — lower, ≤ -4.2
- C8A A39G G84U A106U C149G — lower, ≤ -4.2
- U6G U53G A66U C93G — lower, ≤ -4.2
- U7A C85G C87G A119C G126A A142G U148C — lower, ≤ -4.2
- U7G G25A A41C U45A G50C C85G G136U — lower, ≤ -4.2
- U7C C27U C38A C96U G117A U135A — lower, ≤ -4.2
- U7A C35U A49C A66G A97U — lower, ≤ -4.2
- U7C U15A C36A A40C G94C C123A A150G — lower, ≤ -4.2
- U7A G83A A121G U145G U148G — lower, ≤ -4.2
- U7G A17C A30C G48A A66C A91G C114G — lower, ≤ -4.2
- U7G U13G G83A C93U A107G — lower, ≤ -4.2
- C8A A40G U55A C96A G143C — lower, ≤ -4.2
- U7C C10U U55A G62A G65C U78G C96A — lower, ≤ -4.2
- U7G A49C — lower, ≤ -4.2
- U7A A28G A40U A49C G50C C87A U144G — lower, ≤ -4.2
- U7G A22G C32U G59C U77G C114U U145A — lower, ≤ -4.2
- U7A A16G A17C G59C A110G — lower, ≤ -4.2
- U7C A21U C38U G42C A64G A66C U101A C125U — lower, ≤ -4.2
- C8A A21C A47C C57U C79G G94C G100C U104G A113U G143C A150U — lower, ≤ -4.2
- U7A A21G G42A G70U C85U A115C — lower, ≤ -4.2
- U7A A39U G50C G86A C93G — lower, ≤ -4.2
- U7C G25C C27U G50C A66U C87U — lower, ≤ -4.2
- C8A A24C A29U C54G A89U C93A — lower, ≤ -4.2
- U7G G58U G59A C95U G140U — lower, ≤ -4.2
